Source: the supplement of paper PMC4967469
The IC50 comes from the fitted curve, where viability falls to half of the control; where the fit passes the top or lowest dose, that dose stands as a limit. For AUC the same curve is integrated over the 256-fold range of doses and scaled to a fraction; the more sensitive the line, the further below 1. For some of these results: Where the top dose is marked as inferred, it is not printed in the source and was worked back from the curve model. For some of these results: Where an entry number is given, a second screen of the drug exists; the two often differ.

What was measured:
Assay in all cases: Viability of human cancer cell lines after 72 h of drug (GDSC screen)
Parthenolide = compound: C=C1C(=O)O[C@H]2[C@H]1CC/C(C)=C/CC[C@@]1(C)O[C@@H]21 [Parthenolide]; settings: top dose 5 µM
Experimental: (§1)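 Human cancer cell lines in 384-well plates, medium with 10% serum, drug for 72 h over a 256-fold dose range (nine 2-fold or five 4-fold steps up to the top dose). Adherent lines were fixed and stained with the nucleic acid dye Syto60, suspension lines read with resazurin; signal relative to control wells, capped at 0 and 100%. One two-parameter sigmoid per drug and line, fitted in a mixed model over all curves with the slope shared within a line.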

KIN001-135 = compound: COc1cc2ncn(-c3cc(OCc4ccccc4S(C)(=O)=O)c(C#N)s3)c2cc1OC [KIN001-135]; settings: top dose 5 µM; top dose inferred
Experimental: as §1

PAC-1 = compound: C=CCc1cccc(/C=N/NC(=O)CN2CCN(Cc3ccccc3)CC2)c1O [PAC-1]; settings: top dose 2.56 µM
Experimental: as §1

BMS-708163 = compound: NC(=O)[C@@H](CCC(F)(F)F)N(Cc1ccc(-c2ncon2)cc1F)S(=O)(=O)c1ccc(Cl)cc1 [BMS-708163]; settings: top dose 5 µM; screen: GDSC drug entry 1072; top dose inferred
Experimental: as §1

Row | Cell Line | AUC (Parthenolide) | IC50 (Parthenolide) [µM] | AUC (KIN001-135) | IC50 (KIN001-135) [µM] | AUC (PAC-1) | IC50 (PAC-1) [µM] | AUC (BMS-708163) | IC50 (BMS-708163) [µM]
1 | IST-MES1 (mesothelioma, adherent) | 0.985 | > 5 | 0.988 | > 5 | 0.987 | > 2.56 | 0.988 | > 5
2 | IST-SL1 (small cell lung carcinoma, semi-adherent) | 0.971 | > 5 | 0.983 | > 5 | 0.972 | > 2.56 | 0.984 | > 5
3 | IST-SL2 (small cell lung carcinoma, suspension) | 0.871 | 4.64 | 0.989 | > 5 | 0.855 | 2.01 | 0.976 | > 5
4 | JAR (urogenital system, adherent) | 0.988 | > 5 | 0.976 | > 5 | 0.985 | > 2.56 | 0.978 | > 5
5 | JJN-3 (haematopoietic neoplasm, suspension) | 0.846 | 2.72 | 0.992 | > 5 | 0.99 | > 2.56 | 0.988 | > 5
6 | JM1 (B-cell lymphoma, suspension) | 0.841 | 2.79 | 0.989 | > 5 | 0.939 | > 2.56 | 0.987 | > 5
7 | JURL-MK1 (chronic myeloid leukaemia, suspension) | 0.977 | > 5 | 0.981 | > 5 | 0.963 | > 2.56 | 0.986 | > 5
8 | JVM-2 (lymphoid neoplasm, suspension) | 0.98 | > 5 | 0.976 | > 5 | 0.973 | > 2.56 | 0.977 | > 5
9 | JVM-3 (lymphoid neoplasm, suspension) | 0.983 | > 5 | 0.987 | > 5 | 0.962 | > 2.56 | 0.987 | > 5
10 | JiyoyeP-2003 (Burkitt lymphoma, suspension) | 0.94 | > 5 | 0.989 | > 5 | 0.796 | 1.03 | 0.99 | > 5
11 | K5 (thyroid, adherent) | 0.912 | > 5 | 0.988 | > 5 | 0.952 | > 2.56 | 0.984 | > 5
12 | KALS-1 (glioma, adherent) | 0.949 | > 5 | 0.976 | > 5 | 0.857 | > 2.56 | 0.971 | > 5
13 | KARPAS-45 (lymphoblastic leukaemia, suspension) | 0.974 | > 5 | 0.991 | > 5 | 0.844 | 1.39 | 0.977 | > 5
14 | KARPAS-231 (B-cell leukaemia, suspension) | 0.81 | 1.92 | 0.989 | > 5 | 0.848 | 1.28 | 0.993 | > 5
15 | KARPAS-299 (anaplastic large cell lymphoma, suspension) | 0.992 | > 5 | 0.99 | > 5 | 0.982 | > 2.56 | 0.992 | > 5
16 | KARPAS-422 (B-cell lymphoma, suspension) | 0.985 | > 5 | 0.988 | > 5 | 0.912 | > 2.56 | 0.978 | > 5
17 | KCL-22 (chronic myeloid leukaemia, suspension) | 0.919 | > 5 | 0.991 | > 5 | 0.886 | 2.04 | 0.991 | > 5
18 | KE-37 (lymphoblastic leukaemia, suspension) | 0.969 | > 5 | 0.994 | > 5 | 0.551 |  | 0.994 | > 5
19 | KELLY (neuroblastoma, adherent) | 0.987 | > 5 | 0.987 | > 5 | 0.962 | > 2.56 | 0.979 | > 5
20 | KG-1 (acute myeloid leukaemia, suspension) | 0.962 | > 5 | 0.987 | > 5 | 0.944 | > 2.56 | 0.988 | > 5

Row | Cell Line | AUC (Parthenolide) | IC50 (Parthenolide) [µM] | AUC (KIN001-135) | IC50 (KIN001-135) [µM] | AUC (PAC-1) | IC50 (PAC-1) [µM] | AUC (BMS-708163) | IC50 (BMS-708163) [µM]
21 | KGN (ovary, adherent) | 0.812 | 3.41 | 0.974 | > 5 | 0.854 | > 2.56 | 0.904 | > 5
22 | KINGS-1 (glioma, adherent) | 0.971 | > 5 | 0.98 | > 5 | 0.976 | > 2.56 | 0.845 | > 5
23 | KM12 (large intestine, adherent) | 0.843 | 4.01 | 0.983 | > 5 | 0.949 | > 2.56 | 0.912 | > 5
24 | KM-H2 (Hodgkin lymphoma, suspension) | 0.987 | > 5 | 0.993 | > 5 | 0.878 | 1.92 | 0.987 | > 5
25 | KMOE-2 (acute myeloid leukaemia, suspension) | 0.971 | > 5 | 0.99 | > 5 | 0.955 | > 2.56 | 0.99 | > 5
26 | KMS-12-BM (myeloma, suspension) | 0.988 | > 5 | 0.991 | > 5 | 0.905 | 2.39 | 0.984 | > 5
27 | KNS-42 (glioma, adherent) | 0.984 | > 5 | 0.978 | > 5 | 0.983 | > 2.56 | 0.973 | > 5
28 | KNS-81-FD (glioma, adherent) | 0.978 | > 5 | 0.978 | > 5 | 0.98 | > 2.56 | 0.917 | > 5
29 | KS-1 (glioma, adherent) | 0.873 | > 5 | 0.864 | > 5 | 0.972 | > 2.56 | 0.979 | > 5
30 | KU812 (chronic myeloid leukaemia, suspension) | 0.874 | 4.12 | 0.988 | > 5 | 0.988 | > 2.56 | 0.988 | > 5
31 | KURAMOCHI (ovary, adherent) | 0.977 | > 5 | 0.983 | > 5 | 0.909 | > 2.56 | 0.936 | > 5
32 | KY821 (leukaemia, suspension) | 0.963 | > 5 | 0.992 | > 5 | 0.924 | > 2.56 | 0.978 | > 5
33 | L-363 (myeloma, suspension) | 0.967 | > 5 | 0.99 | > 5 | 0.928 | > 2.56 | 0.991 | > 5
34 | L-428 (Hodgkin lymphoma, suspension) | 0.99 | > 5 | 0.993 | > 5 | 0.785 | 0.96 | 0.993 | > 5
35 | L-540 (Hodgkin lymphoma, suspension) | 0.986 | > 5 | 0.987 | > 5 | 0.845 | 1.56 | 0.99 | > 5
36 | L-1236 (Hodgkin lymphoma, suspension) | 0.981 | > 5 | 0.986 | > 5 | 0.98 | > 2.56 | 0.991 | > 5
37 | LAMA-84 (chronic myeloid leukaemia, suspension) | 0.924 | > 5 | 0.986 | > 5 | 0.972 | > 2.56 | 0.986 | > 5
38 | LAN-6 (neuroblastoma, adherent) | 0.911 | > 5 | 0.98 | > 5 | 0.938 | > 2.56 | 0.984 | > 5
39 | LB373-MEL-D (melanoma, adherent) | 0.986 | > 5 | 0.99 | > 5 | 0.987 | > 2.56 | 0.983 | > 5
40 | LB647-SCLC (small cell lung carcinoma, semi-adherent) | 0.965 | > 5 | 0.938 | > 5 | 0.872 | > 2.56 | 0.985 | > 5

Row | Cell Line | AUC (Parthenolide) | IC50 (Parthenolide) [µM] | AUC (KIN001-135) | IC50 (KIN001-135) [µM] | AUC (PAC-1) | IC50 (PAC-1) [µM] | AUC (BMS-708163) | IC50 (BMS-708163) [µM]
41 | LB771-HNC (head and neck, adherent) | 0.981 | > 5 | 0.976 | > 5 | 0.981 | > 2.56 | 0.982 | > 5
42 | LB831-BLC (bladder, adherent) | 0.978 | > 5 | 0.986 | > 5 | 0.986 | > 2.56 | 0.986 | > 5
43 | LB996-RCC (kidney, adherent) | 0.976 | > 5 | 0.981 | > 5 | 0.975 | > 2.56 | 0.941 | > 5
44 | LB1047-RCC (kidney, adherent) | 0.982 | > 5 | 0.98 | > 5 | 0.862 | > 2.56 | 0.96 | > 5
45 | LB2241-RCC (kidney, adherent) | 0.862 | > 5 | 0.983 | > 5 | 0.931 | > 2.56 | 0.979 | > 5
46 | LB2518-MEL (melanoma, adherent) | 0.895 | > 5 | 0.98 | > 5 | 0.981 | > 2.56 | 0.987 | > 5
47 | LC4-1 (lymphoblastic leukaemia, suspension) | 0.976 | > 5 | 0.984 | > 5 | 0.926 | > 2.56 | 0.984 | > 5
48 | LC-2-ad (lung adenocarcinoma, adherent) | 0.985 | > 5 | 0.985 | > 5 | 0.778 | 1.06 | 0.966 | > 5
49 | LNCaP-Clone-FGC (prostate, adherent) | 0.984 | > 5 | 0.981 | > 5 | 0.9 | > 2.56 | 0.984 | > 5
50 | LOUCY (T-cell lymphoblastic leukaemia, suspension) | 0.875 | 3.43 | 0.988 | > 5 | 0.781 | 0.863 | 0.992 | > 5
51 | LP-1 (myeloma, suspension) | 0.977 | > 5 | 0.993 | > 5 | 0.977 | > 2.56 | 0.993 | > 5
52 | LS-123 (large intestine, adherent) | 0.974 | > 5 | 0.982 | > 5 | 0.928 | > 2.56 | 0.963 | > 5
53 | LS-411N (large intestine, adherent) | 0.944 | > 5 | 0.961 | > 5 | 0.812 | 1.75 | 0.966 | > 5
54 | LS-513 (large intestine, adherent) | 0.987 | > 5 | 0.986 | > 5 | 0.968 | > 2.56 | 0.984 | > 5
55 | LS-1034 (large intestine, adherent) | 0.984 | > 5 | 0.985 | > 5 | 0.928 | > 2.56 | 0.949 | > 5
56 | LU-65 (large cell lung carcinoma, suspension) | 0.943 | > 5 | 0.974 | > 5 | 0.982 | > 2.56 | 0.987 | > 5
57 | LU-134-A (small cell lung carcinoma, suspension) | 0.95 | > 5 | 0.986 | > 5 | 0.862 | 2.43 | 0.987 | > 5
58 | LU-139 (small cell lung carcinoma, suspension) | 0.97 | > 5 | 0.981 | > 5 | 0.882 | > 2.56 | 0.982 | > 5
